In PubChem BioAssay AID504832 (National Center for Advancing Translational Sciences (NCATS), 2011):
Screen size: about 310,000 compounds; about 18,000 (5.8%) were called active. Inconclusive results, whose numbers are uncertain, are shown with a selection of clear calls. Calls follow the shape of the dose curve; as a rule, active = well fitted inhibition curve with a large enough effect; inconclusive = small, poorly fitted or top-dose-only effect, or another doubt; inactive = no such curve, though single readings can be large or run the other way. Potencies of inconclusive entries are left out as doubtful fits.

Assay: Primary qHTS for delayed death inhibitors of the malarial parasite plastid, 48 hour incubation
Conditions: P. falciparum luciferase growth in erythrocytes; series mostly up to 28.7 µM
Method in brief: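 Luciferase-expressing P. falciparum in infected erythrocytes (2% hematocrit, 0.1% parasitemia final) in RPMI 1640/0.5% Albumax were exposed to compound for 48 hours at 37 C, 5% CO2; growth read as luminescence.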
Potency is read from the fitted curve at half-maximal effect; tags tell the direction and shape of the fitted curve.

Structure (SMILES)	Potency
CCc1ccccc1-n1c(-c2ccncc2)n[nH]c1=S	inconclusive [inhibitor, full curve, poor fit]
CCN(c1ccccc1)S(=O)(=O)c1ccc(Cl)c(NC(=O)CSc2n[nH]c(N)n2)c1	inactive
COc1cccc(C2Oc3ccccc3C3CC(c4cccs4)=NN32)c1 (stereo not drawn)	inactive
COC(=O)c1cccc(NC(=O)CCCOc2ccccc2)c1	inconclusive [inhibitor, full curve, poor fit]
O=C1C2Sc3[nH]c(=O)sc3C(c3ccccc3)C2C(=O)N1c1ccccc1 (stereo not drawn)	inconclusive [inhibitor, full curve]
Cc1ccc(C(=O)OCc2c(C)noc2C)cc1NC(=O)c1ccco1	inactive
Cc1ccc(OCCn2cnc3c(N)ncnc32)cc1	inconclusive [inhibitor, full curve, poor fit]
COc1ccc(C(=O)Nc2ccc(Cl)cc2C(=O)NCc2ccco2)cc1	inconclusive [inhibitor, full curve]
CC(C)C[C@@H](CSc1ccccc1)N1CCN(CC(C)C)CCC1=O	inconclusive [inhibitor, single point]
CC1=CCC2(CO)COC(c3ccccc3O)C1C2 (stereo not drawn)	inactive
COc1ccc(/C(O)=C2/C(=O)C(=O)N(CCCC(=O)O)C2c2ccc(OC)cc2)cc1 (stereo not drawn)	inconclusive [inhibitor, full curve, poor fit]
Cc1ccc(OCC(=O)Nc2ccc(NC(=O)c3cccs3)cc2)c(C)c1	inconclusive [inhibitor, partial curve, poor fit]
c1cncc(Oc2cccc(Oc3cccnc3)c2)c1	inconclusive [inhibitor, single point]
O=C1N/C(=N\N=C\c2cccs2)SC1Cc1ccc(Cl)cc1 (stereo not drawn)	inconclusive [inhibitor, single point]
OC(COc1ccc2ccccc2c1Br)Cn1ccnc1 (stereo not drawn)	inconclusive [inhibitor, single point]
CCCn1c(SCC(=O)NC(C)c2ccccc2)n[nH]c1=O (stereo not drawn)	inconclusive [inhibitor, full curve, poor fit]
O=C(CN1CCCN(S(=O)(=O)c2ccc(Br)cc2)CC1)Nc1ccc2c(c1)OCO2	inconclusive [inhibitor, single point]
N#C/C(C(=O)c1ccccc1)=C1/CCCN1	inactive
CSc1nsc(SC)c1C(=O)OCC(F)(F)F	inconclusive [inhibitor, partial curve, poor fit]
COc1ccc(N2CCN(S(=O)(=O)c3ccc(OC)cc3)CC2)cc1	inconclusive [inhibitor, single point]
COc1ccccc1CNS(=O)(=O)c1ccc2c(c1)NC(=O)CS2	inactive
CCN(CC(=O)Nc1ccccc1C(F)(F)F)C(=O)c1ccccc1SCC(=O)N1CCCC1	inconclusive [inhibitor, single point]
Cc1ccc(NC(=S)NCc2ccccc2)cc1S(=O)(=O)N1CCCCC1	inconclusive [inhibitor, single point]
COCc1cccc(C2=CC(=O)C[C@H](c3ccc(OC)cc3)C2)c1	inactive

Structure (SMILES)	Potency
O=c1cc(N2CCCC2)c2ccccc2o1	inactive
CC1(C(=O)OCC(=O)Nc2nnc(-c3ccccc3)o2)CC1(Cl)Cl (stereo not drawn)	inconclusive [inhibitor, single point]
CN1C(=O)/C(=C\c2ccc(N(C)C)cc2)OC1=S	inactive
CC1CCCCN1C(=O)CN1C(=O)CSc2ccc(S(=O)(=O)N3CCOCC3)cc21 (stereo not drawn)	inactive
CCCc1ccc(OCCNC(=O)c2ccco2)cc1	inconclusive [inhibitor, partial curve, poor fit]
CCOc1ccccc1CNCCO	inactive
CSCCC1NC2(C(=O)Nc3c(C)cc(Cl)cc32)[C@@H]2C(=O)N(C3CCCC3)C(=O)[C@H]12 (stereo partly drawn)	inconclusive [inhibitor, single point]
CSc1nnc(C)c(=O)n1COC(=O)c1ccc(S(=O)(=O)N(C)C)cc1	inactive
COc1cc(O)c2c(=O)c3c(OC)c(O)ccc3oc2c1	inactive
CC1CCN(c2ccc(NC(=O)C3CCCN3S(=O)(=O)c3ccc(F)cc3)cc2)CC1 (stereo not drawn)	inconclusive [inhibitor, single point]
COc1cc(C(=O)NC(=S)Nc2cccc(-c3cc4ccccc4oc3=O)c2)cc(OC)c1OC	inconclusive [inhibitor, single point]
CCOc1ccc(S(=O)(=O)N2CCC(C(=O)NCc3ccncc3)CC2)cc1	inconclusive [inhibitor, single point]
COc1ccc(Cc2noc(CN3CCN(Cc4csc(C)n4)CC3)n2)cc1OC	inactive
CC1CN(S(=O)(=O)c2cccc(C(=O)OCC(=O)Nc3ccc4c(c3)OCO4)c2)CC(C)O1 (stereo not drawn)	inconclusive [inhibitor, single point]
CC(=O)N1N=C(c2ccc(NS(=O)(=O)c3ccccc3)cc2)CC1c1ccco1 (stereo not drawn)	inconclusive [inhibitor, single point]
CCOc1ccccc1N(CC(=O)N1CCCCCC1)S(=O)(=O)c1ccc(C)cc1	inconclusive [inhibitor, full curve]
COc1ccc(NC(=O)CN2CCN(C(=O)c3ccco3)CC2)c(OC)c1	active: 10.4 µM
COc1ccc(CNS(=O)(=O)NCc2ccc(C)cc2)cc1	inactive
Cc1ccc(S(=O)(=O)N(CC2CO2)c2ccccc2[N+](=O)[O-])cc1 (stereo not drawn)	inactive
CCC(C(=O)NC(N)=O)c1ccccc1 (stereo not drawn)	inactive
CC(=O)n1nc(-c2ccco2)nc1N	inactive
COc1ccc(N/C=C/C(=O)c2ccccc2)cc1	inactive
COC(=O)c1ccc(N(CC(=O)NC2CCCC2)C(=O)c2ccc(C)s2)cc1	inconclusive [inhibitor, partial curve]
COc1ccc(CCNC(=O)c2cc3c(=O)n4ccccc4nc3n(C3CCCCC3)c2=N)cc1OC	inconclusive [inhibitor, full curve]
